B1: tRNA (parent)
chain: CUCUCGGUAGCCAAGUUGGUUUAAGGCGCAAGACUUUAAUUUAUCACUACGAAAUCUUGAGAUCGGGCGUUCGACUCGCCCCCGGGAGAUUUUUUCCUCGAGCAA

This note sets out measurements from the RNAGym collection of RNA variant scans (doi:10.1101/gad.245936.114).

This sample is rich in variants without activity.

The variants in this series derive from B1. Briefly: nonsense suppression (GFP-seq) (ratio to wild type); higher = more function; SUP4oc tRNA, yeast GFP reporter sort-seq. The procedure, abridged:
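Yeast carrying genome-integrated SUP4oc tRNA variants from a library with ~3% random mutations were grown in raffinose/galactose medium with 80 mg/L adenine. Each strain also carried a galactose-driven GFP ochre reporter and RFP. Cells were sorted into GFP/RFP bins, and each bin was Illumina-sequenced (phred ≥30). Nonsense suppression (GFPSEQ) is the bin median GFP/RFP, weighted by each variant's estimated cell share per bin, relative to wild-type SUP4oc; variants needed ≥100 reads and ≥30 cells.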
For the variant CUCUCGGUGGCCAAGUUGGUUUAAGGCGCAAGACUUUAAUUUAUCACUACGAAAUCGAGAGAUGGGGCGUUCGACUUGCCCCCGGGAGAUUUUUUCCUCGAGCAA, the nonsense suppression was not above 0.026.

Take CACUCGGUAGCGAAGUUGGUUUAAGGCGCAAGACUUUAAUUUAUCACUACGAAAUCUUGAGAUCGGGCGUUCGACUCGCCCCCGGGAGAUUUUUUCCUCGAGCAA: the nonsense suppression was not above 0.026.

With CUCUCGCUAGCCAAGUUGGUUGAAGGCGCAAGACUUUAAUUUAUCACUACGAAACCUUGAGAUCGGGCGUUCGACUCGCCCCCGGGAGAUUUUUUCCUCGAGCAA, the nonsense suppression is not above 0.026.

In the case of CACGCGGUAGCCAAGUUGGUUUAAGGCGCAAGACUUUAAUUUAUCACUACGAAAUCUUGAGAUCGGGCGUUAGACUCGCCCCCGGGAGAUUUUUUCCUCGAGCAA, the nonsense suppression is not above 0.026.

CUAUCGGUAGCCAAGUUGGUUUAAGGCGCAAGACUUUAAUUUAUCACUACGAAAUCUUGAGAUAGGGCUUUCGACUCGCCCCCGGGAGAUUUUUUCCUCGAGCAA: the nonsense suppression is not above 0.026.

As to CUCUCGGUAGCCAAGUUGGUUUAAGGCGCAAGACUUUAAUUUAUCACUACGAAAUCUUGAGAUCGGGAUUUCGACUCGCCCCCGGGAGAUUUUUUCCUCGAGCAA, the nonsense suppression is not above 0.026.

Consider CUCUCGGUAGCCAAGUUGGUUUAAGGCGCAAGACUUUAAUUUAUCACUACGAAAUCUUGAAAUCGGGCGUUCGACACGCCCCGGGGAGAUUUUUUCCUCGAGCAA, for which the nonsense suppression is not above 0.026.

Regarding CUCUCGUUAGCCAAGGUGGUUUAAGGCGCAAGACUUUAAUUUAUCACUACGAAAUCUUGAGAUCGGGCGUUCGACUCGCCCCCGGGAGAUUUUUUCCUCGAGCAA, the nonsense suppression was not above 0.026.

Consider CUCUCGGUAGCCAAGUUGAUUUAAGGCGCAAGACUUUAAUUUAUCACUACGAAAUCUUGCGAUCGGGCGUUCGACUCGCCCCCGGGAGAUUUUUUCCUCGAGCAA, for which the nonsense suppression is not above 0.026.

Consider UUCUCGGUAGCCAAGUUGGUUUAAGGCGCAAGACUUUAAUUUAUCACUACGAAAUCUUGAGGUCGGGCGUUCGACUCGCACCCGGGAGAUUUUUUCCUCGAGCAA, for which the nonsense suppression is not above 0.026.

Regarding CUCUCGGUAGCCAAGUUGGUUUAAGGCGCAGGACUUUAAUUUAUCACUACGAAAUCUUGAGAUCGGGCGUUCGACUCGCGCCCGGGAGAUUUUUUCCUCGAGCAA, the nonsense suppression is not above 0.026.

For CUCGCGGUAGCCAAGUUGGUUUAAGGAGAAAGACUUUAAUUUAUCACUACGAAAUCUUGAGAUCGGGCGUUCGACUCGAGCCCGAGAGAUUUUUUCCUCGAGCAA, the nonsense suppression was not above 0.026.

Regarding CUCUCGGUAGCCAAGUUGGUAUAAGGCGUAAGACUUUAAUUUAUCACUACGAAAUCUUGCGAUCAGGCAUUCUACUCGCCCCCGGGAGAUUUUUUCCUCGAGCAA, the nonsense suppression was not above 0.026.

CUCUCGUUAGCCAAGUUGGUUUAAGGCGCAAGACUUUAAUUUAUCACUACGAAAUCUUGGGAUCGGGCGUUCGACUCGCCCCCGGGAGAUUUUUUCCUCGAGCAA: the nonsense suppression is not above 0.026.

As to CUCUCGGUAGCCAAGUUGGUUUAAGGCGCAAGAUUUUAAUUUAUCACUACGAAGUCUUGAGAUCGGGCGUUCGACUAGCCCCCGGGAGAUUUUUUCCUCGAGCAA, the nonsense suppression was not above 0.026.

For the variant CUCUCGUUAGCCAAGUUGGUUUAUGGCGCAAGACUUUAAUUUAUCACUACGAAAUCUUGAGAUCGGGCGUUCGACUCGCCCCCGGGAGAUUUUUUCCUCGAGCAA, the nonsense suppression is not above 0.026.

Regarding CUCUCGGUAGCCAAGUUUGUUUAAGGCGCGAGACUUUAAUUUAUCACUACGAAAUCUUGAGAUCGGGCGUUCGACUCGCCCCCGGGAGAUUUUUUCCUCGAGCAA, the nonsense suppression is not above 0.026.

As to UUCUCGGUAGCCAAGUUGGUUUAAGGCGCAAGACUUUAAUUUAUCACUACGAAAUCGUGAGAUCGGGCGUUCGACACGCCCCCGGGAGAUUUUUUCCUCGAGCAA, the nonsense suppression was not above 0.026.

CUCUCGGUAGCCAAGGUGGUUUAAGGGGCAAGACUUUAAUUUAUCACUACGAAAUCUUGAGAUCGGGCGUUCGACACGCCCGCGGGAGAUUUUUUCCUCGAGCAA: the nonsense suppression was not above 0.026.

On to GUCUCGGUAGCCAAGUUGGUUUAAGGCGCAAGACUUUAAUUUAUCACUACGAAAUCUUGAGAUCGGGCUUUCGACUCGCCCCCGGGCGAUUUUUUCCUCGAGCAA, for which the nonsense suppression was not above 0.026.

In the case of CUCUCGGUAGCCAAGUUGGUUUAUGGCGCAAGACUUUAAUUUAUCACUACGAAAUCUUGAGAUCGGGCGUUCGACUCGCCCCCAGGAGAUUUUUUCCUCGAGCAA, the nonsense suppression turned out to be 0.0448.

For the variant CUCUCGGUAGCCAAGUUUGUUUAAGGCGCAAGACUUUAAUUUAUCACUACGAAAUCUUGAGAUAGGGCGUUCGACUAGCCCCCGGGAGAUUUUUUCCUCGAGCAA, the nonsense suppression is not above 0.026.

For CUCUCGGUGGCCAAGUUGGUUUAAGGUGCAAGACUUUAAUUUAUCACUACGAAAUCUUGAGAUCGGGCGUUCGACUCGCCGCCGCGAGAUUUUUUCCUCGAGCAA, the nonsense suppression is not above 0.026.

Consider CUCUCGGUAGCCAAGGUGGUUUAAGGCGCCAGACUUUAAUUUAUCACUACGAAAUCUUGAGAUCGGGCGUUCGACUCGCCCCCGGGAGCUUUUUUCCUCGAGCAA, for which the nonsense suppression is not above 0.026.

Consider CUCUCGGUAGCCAAGUUGGUUUAAGGCGCAAGACUUUAAUUUAUCACUACGAAAUCUUGAUUUCGGGCGUUCGACUCGCCCCCGGGAGGUUUUUUCCUCGAGCAA, for which the nonsense suppression was not above 0.026.

In the case of CUCUCGGUAGCCAAGUUGGUUUAAGGGGCAAGACUUUAAUUUAUCACUACGAAAUCGUGAGAUCGGGCGUUCCCCUCGCCCCCGGGAUAUUUUUUCCUCGAGCAA, the nonsense suppression was not above 0.026.

For CUCUCGGGAGCCAAGUUGGUUUAAGGCGCGAGACUUUAAUUUAUCACUACGAAAUCUUGAGAUCGGGCGUUCGACUCGCCCCCGGGAGAUUUUUUCCUCGAGCAA, the nonsense suppression was not above 0.026.

With CUCUCGGUAGCCAAGUUGGUUUAAGGUGCAAGACUUUAAUUUAUCACUACGAAAUCUUGUGAUCGGUCGUUCGACUCGCCCCCGGGAGAUUUUUUCCUCGAGCAA, the nonsense suppression was not above 0.026.

Turning to CUCUCGGUUGCCAAGUUGGUUUAAGGCGCAAGAGUUUAAUUUAUCACUACGAAGUCUUGAGAUCGGGCGUUCGACUCGCCCCCGGGAGAUUUUUUCCUCGAGCAA, the nonsense suppression was not above 0.026.

For CUCUCGGUAGGCAAGUUGGUUUAAGGCGCAACACUUUAAUUUAUCACUACGAAAUCCUGUCAUCGGGCGUUCGACUCGCCCCCGGGAGAUUUUUUCCUCGAGCAA, the nonsense suppression was not above 0.026.

As for CUCUCGGUAGCCAAGUUGGUUUAAGGCGCAAGACUUUAAUUUAUCACUACGAAAUCUUGAGAUCGGGCGUUCGACUCGCGCCGGGGAGAUUUUUUCCUCGAGCAA, the nonsense suppression is not above 0.026.

As to CUCUCGGUGGCCAAUUUGGUUUAAGGCGCAAGACUUUAAUUUAUCACUACGAAAUCUUGAGAUCGGGCGUUCGACUCGCCCCCGGGAGAUUUUUUCCUCGAGCAA, the nonsense suppression worked out at 0.0374.

In the case of CUCUCGGUAGCCAAGUUGGUUUAAGGCGCAAGACUUUAAUUUAUCACUACGAAAUCUUGAGAUCGGGCGUUCGACUCGCCCUCGGGAUAUUUUUUCCUCGAGCAA, the nonsense suppression was not above 0.026.

CUCUCGGUAGCCAAGUUGGUUUAAUGCGCAAGACUUUAAUUUAUCACUACGAAAUCUUGAGAUCGAGCGUUCGACUCGCCCCCGGGAGAUUUUUUCCUCGAGCAA: the nonsense suppression was not above 0.026.

Regarding CUCUCGGUAGCCAAGUUGGUUUAAGCCGCAAGACUUUAAUUUAUCACUACGAAAUCUUGAGAUCGGGCGUUCGACUCGCCCGCAGGAGAUUUUUUCCUCGAGCAA, the nonsense suppression was not above 0.026.

Turning to CUCUCGGUAGUCAAGUUGGUUUAAGGCGCAAGACUUUAAUUUAUCACUACGAAAUCUUCAGAUCGGGCGUUCGACUCGCCCCCGGGAGAUUUUUUCCUCGAGCAA, the nonsense suppression was not above 0.026.

CUCUCAGUAUCCAAAUUGGUUUAAUGCGCAAGACUUUAAUUUAUCACUACGAAAUCUUCAGAUCGGGCGUUCGACUCGCCCCCGGGAGAUUUUUUCCUCGAGCAA: the nonsense suppression was not above 0.026.

Turning to CUCUCGGUAGCCAAGUUGGUUUAAGUCGCAAGACCUUAAUUUAUCACUACGAAAUCUUGAGAUCGGGCGUUCGACUCGCCCCCCGGAGAUUUUUUCCUCGAGCAA, the nonsense suppression was not above 0.026.

CUCUCGGUAGCCAAGUUGGUUUAAGGCGCAAGCCUUUAAUUUAUCACUACGAAAUCUUGAGAUCGGGAGUUCGACUCGCCCCCGGGAGAUUUUUUCCUCGAGCAA: the nonsense suppression was not above 0.026.

Turning to CUCUCGGUUGCCAAGUUGGUUUAAGGCGCAAGACUUUAAUUUAUCACUACGAAAUCGUGAGAUCGGGCGUUCGACUCGCCCCCGGGAGAUUUUUUCCUCGAGCAA, the nonsense suppression is not above 0.026.

On to CUCUCGGUAGCCAAGUUGGUUUAAGGCGCAAGACUUUAAUUUAUCACUACGAAAUCUAGAGAUCGGGCGUUCGAGUCGCCCCCGGGAGAUUUUUUCCUCGAGCAA, for which the nonsense suppression is not above 0.026.

Turning to CUCUCGGUAGCCAAGUUGGUUUAAGGCGCAAGACUUUAAUUUAUCACUACGAAAUCUAGAGAUCGGGCUUUCGACUCGCCCCCGGGAGAUUUUUUCCUCGAGCAA, the nonsense suppression is not above 0.026.

Turning to CUCUAGGUAGCCAAGUUGGUUUAAGGCGCAAGACUUUAAUUUAUCACUACGAAAUCUAGAGAUCGGGCGUUCGACUCCCCCCCGGGAGAUUUUUUCCUCGAGCAA, the nonsense suppression was not above 0.026.

Consider CUCUCGGUAGCCAAGUUGGUUUAGGGCGCAAAACUUUAAUUUAUCACUACGAAAACUUGAGAUCGGGCGUUCGACUCGACCCCGGGAGAUUUUUUCCUCGAGCAA, for which the nonsense suppression was not above 0.026.

With CUCUCGGUAGCCAAGUUGGUUUAAGGCGCAAGACUUUAAUUUAUCACUACGAAAUCGUGAGAUCGGGCGUUCGACUCGCCCCCGAGAGAUUUUUUCCUCGAGCAA, the nonsense suppression was not above 0.026.

As for CUCUCGGUAGCCAAGUUGGUUUUAGGCGCAAGACUUUAAUUUAUCACUACGAAAUCUUGAGUUCGGGCGUUCGACUCGGCCCCGGGAGAUUUUUUCCUCGAGCAA, the nonsense suppression was not above 0.026.

For the variant CUCUCGGUAGUCAGGUUGGUUUAAAGCGCAAGACUUUAAUUUAUCACUACGAAAUCUUGAGAUCGGGCGUUCGAAACGCCCCCGGGAGAUUUUUUCCUCGAGCAA, the nonsense suppression was not above 0.026.

Take UACGCGGUAGCCAAGUUGGUUUAAGGCGCAAGACUUUAAUUUAUCACUACGAAAUCUUGAGAUCGGGCGUUCGACUCGCUCCCGGGAGAUUUUUUCCUCGAGCAA: the nonsense suppression was not above 0.026.

Turning to CUCACGGUAGUCAAGUUGGUUUAAGGCGCAAGAUUUUAAUUUAUCACUACGAAAUCUUGAGAUCGGGCGUUCGACUCGCCCCCGGGAGAUUUUUUCCUCGAGCAA, the nonsense suppression is not above 0.026.

For CUCGCGGUAGCCAAGUUGGUUUAAGGCGCAAGACUUUAAUUUAUCACUACGAAUUCUUGAGAUCGGGCGUUCGACUCGCCCCCGGGAGAUUUUUUCCUCGAGCAA, the nonsense suppression came out at 0.469.

UUCUCGGUAGCCAAGUUGGUUUAAGGCGCAAGAAUUUAAUUUAUCACUACGAAAUCUUGAGAUCGGGCGUUCGACUCGCCCCCGGGAGAUUUUUUCCUCGAGCAA: the nonsense suppression is not above 0.026.

For the variant CUGUCGGUAGCCAAGUUGGUUUAAGGCGCAAGACUUUAAUUUAUCACUACGAAAUCUUGAGACCGGGCGUUCGACCCGCCCCCGGGAGAUUUUUUCCUCGAGCAA, the nonsense suppression was not above 0.026.

Consider CUCUCGGUAGCCAAGUUGGUUUAAGGCGCAAGACUUUAAUUUAUCACUACGAAAUCUUGAGAUCGGUCGUUCGACUCGCCCGCGGGAGAUUUUUUCCUCGAGCAA, for which the nonsense suppression is not above 0.026.

On to CACUCGGUAACCAAGUUGGUUUAAGGCGCAAGUCUUUAAUUUAUCACUACGAAAUCUUGAGACCGGGCGUUCGACUCGCCCCCGGGAGAUUUUUUCCUCGAGCAA, for which the nonsense suppression was not above 0.026.
